Experimental data reported in PubChem BioAssay AID485281 (National Center for Advancing Translational Sciences (NCATS), 2010).
The campaign covered roughly 350,000 compounds. About 260 (0.074%) were called active. The inconclusive results got no clear call from the source; some entries with a clear call stand among them for comparison. Calls follow the shape of the dose curve; as a rule, active = well fitted inhibition curve with a large enough effect; inconclusive = small, poorly fitted or top-dose-only effect; inactive = no such curve, though single readings can be large or run the other way. Where the call is inconclusive, the potency comes from a doubtful curve fit.

Target: Ferritin light chain (Equus caballus) (UniProt P02791)
Assay: qHTS Assay for Identification of Novel General Anesthetics; also: nearly all actives have a fitted effect of over 20% in size
Conditions: apoferritin/1-aminoanthracene competitive binding, fluorescence; activity change, negative = displacement: at 77.5 µM (top of the series)
How it was run: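 10 uM apoferritin + 50% sat. 1-AMA, PBS; cpd 10 min RT; Ex380/Em535 endpoint; normalized to free probe vs complex; 4-param Hill fit; propofol titration as pos. ctrl.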
% is scaled to controls: 0 for no effect and ±100 for the full control effect; potency is read from the fitted curve at half-maximal effect; tags tell the direction and shape of the fitted curve.

Chain of UniProt P02791 (P02791 whole entry, looked up): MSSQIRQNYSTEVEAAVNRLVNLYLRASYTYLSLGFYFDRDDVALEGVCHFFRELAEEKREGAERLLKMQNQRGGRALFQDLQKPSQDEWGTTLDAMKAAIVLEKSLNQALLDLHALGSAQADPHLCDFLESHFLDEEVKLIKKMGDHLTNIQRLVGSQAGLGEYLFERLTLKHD

| Structure (SMILES) | Potency | activity change, negative = displacement |
| --- | --- | --- |
| CCc1ccc2nc3sc(C(=O)O)cc3cc2c1 | inconclusive: 35.5 µM [inhibitor, single point] |  |
| COc1ccc(-c2oc3ncn4nc(COc5c(C)cccc5C)nc4c3c2-c2ccc(OC)cc2)cc1 |  | inactive: -2.72% |
| CN(C(=O)CCl)C1CCCc2ccccc21 (configuration not stated) |  | inactive: -11.3% |
| CCCNC(=O)C(=O)Nc1ccc(N(C)C)cc1 |  | inactive: -9.42% |
| CCCSc1nnc2c(n1)OC(c1sccc1C)Nc1ccccc1-2 (configuration not stated) |  | inactive: 42.5% |
| CCc1cccc(NC(=O)c2cc3c(=O)n(Cc4ccc(OC)cc4)ccc3nc2C)c1 | inconclusive: 50.1 µM [inhibitor, single point] |  |
| COc1nc(C)ccc1-c1noc(-c2ccccn2)n1 |  | inactive: -4.14% |
| COc1ccc(C(=O)CSc2nnc(-c3cnccn3)n2Cc2ccco2)cc1 | inconclusive: 31.6 µM [inhibitor, partial curve] |  |
| CCCCCCCCCCCCCCOc1ccc(C(=O)O)o1 | inconclusive: 11.2 µM [inhibitor, partial curve] |  |
| CC(=O)c1cccc(NC(=O)C2COc3ccccc3O2)c1 (configuration not stated) | inconclusive: 31.6 µM [inhibitor, partial curve] |  |
| COC(=O)c1ccccc1NC(=O)CN1CCc2ccccc2C1 | inconclusive: 25.1 µM [inhibitor, single point] |  |
| C=C1C2(C(=O)NCc3ccco3)CCC(C2)C1(C)C (configuration not stated) | inconclusive: 35.5 µM [inhibitor, single point] |  |
| COC(=O)c1cccc(Cn2c(Cl)c(/C=N/NC(=O)c3ccco3)sc2=O)c1 | inconclusive: 35.5 µM [inhibitor, single point] |  |
| Cc1ccc(C2CC(=O)Nc3cc4c(cc32)OCCO4)cc1 (configuration not stated) |  | inactive: -14% |
| CC1Cc2ccccc2N1C(=O)COc1cccc(-n2cnnn2)c1 (configuration not stated) | inconclusive: 15.8 µM [inhibitor, partial curve] |  |
| O=C(O)CC/C(=N/NC(=O)CNC(=O)C(c1ccccc1)c1ccccc1)c1ccccc1 | inconclusive: 22.4 µM [inhibitor, partial curve] |  |
| Cc1cc(Br)c2c(c1)C(O)(N1CCCCC1C)C(=O)N2 (configuration not stated) | inconclusive: 50.1 µM [inhibitor, single point] |  |
| O=C(Cc1cc(=O)[nH][nH]1)N/N=C/c1cccc(Cl)c1Cl | inconclusive: 39.8 µM [inhibitor, single point] |  |
| Cc1cc(C)cc(NCc2ccncc2)c1 | inconclusive: 28.2 µM [inhibitor, partial curve] |  |
| CC[C@@H](C)[C@H](NC(=O)OC(C)(C)C)c1nnc(S(=O)(=O)Cc2cc(C)ccc2C)o1 | inconclusive: 12.6 µM [inhibitor, partial curve] |  |
| CCCCOC(=O)c1ccc(NC(=O)Cn2nnc3sc4c(c3c2=O)CCCC4)cc1 | inconclusive: 28.2 µM [inhibitor, partial curve] |  |
| O=S(=O)(NC1CCCCC1)c1cccc(-c2nnc(-c3ccccc3)o2)c1 | inconclusive: 14.1 µM [inhibitor, partial curve] |  |
| CCCCCCCC1CC(CSC(=N)N)OC1=O (configuration not stated) | inconclusive: 31.6 µM [inhibitor, partial curve] |  |

| Structure (SMILES) | Potency | activity change, negative = displacement |
| --- | --- | --- |
| COc1cccc(-c2nc(NC(C)C)c3ccccc3n2)c1O | inconclusive: 7.94 µM [inhibitor, partial curve] |  |
| COc1ccc(C(C(=O)NC2CCCCC2)N(C(=O)CCCC(=O)Nc2ccccn2)c2ccc3c(c2)OCCO3)cc1 (configuration not stated) |  | inactive: -8.16% |
| O=S(=O)(c1cccc(-c2csc(-c3cccnc3)n2)c1)N1CCCCC1 | inconclusive: 35.5 µM [inhibitor, single point] |  |
| C#CCCCCCCCCCCCC(O)CC(O)CO (configuration not stated) | inconclusive: 25.1 µM [inhibitor, partial curve] |  |
| CCN(CC)C(=O)C12CC3CC(CC(Cl)(C3)C1)C2 | inconclusive: 56.2 µM [inhibitor, single point] |  |
| CC1=NN(C(N)=S)C(=O)C1N=Nc1c(Cl)cc([N+](=O)[O-])cc1Cl (configuration not stated) | inconclusive: 28.2 µM [inhibitor, single point] |  |
| CCSc1nnc(NC(=O)C(CC)Oc2ccccc2)s1 (configuration not stated) | inconclusive: 28.2 µM [inhibitor, partial curve] |  |
| COc1ccc(NC(=O)CN(C)C(=O)c2oc3ccccc3c2C)cc1 | inconclusive: 28.2 µM [inhibitor, partial curve] |  |
| N#CC1=C(N)Oc2cc3ccccc3cc2C1c1cccs1 (configuration not stated) | inconclusive: 39.8 µM [inhibitor, partial curve] |  |
| O=C(Nc1sc2c(c1C(=O)O)CCCC2)c1ccc(F)cc1 |  | inactive: -9.39% |
| O=C(CCl)Nc1cc2[nH]c(=O)[nH]c2cc1Br |  | inactive: -3.63% |
| CC(=O)N1CCCC(C(=O)c2ccc(Oc3ccccc3)cc2)C1 (configuration not stated) | inconclusive: 35.5 µM [inhibitor, partial curve] |  |
| COc1ccc(CCNc2nccn(-c3ccc(C)c(C)c3)c2=O)cc1OC |  | inactive: -13.7% |
| COc1ccc2c(c1)nc(SCC(=O)c1ccc(Br)s1)n2C | inconclusive: 50.1 µM [inhibitor, partial curve] |  |
| Clc1cccc(Cl)c1Cn1ccc(C2CC2)n1 | inconclusive: 31.6 µM [inhibitor, partial curve] |  |
| Clc1cccc(Cl)c1CSc1nnc(/C=C/c2ccccc2)o1 | inconclusive: 31.6 µM [inhibitor, partial curve] |  |
| CCOC(=O)c1oc2ccccc2c1COC(=O)CNC(=O)c1cccc(C)c1 | inconclusive: 31.6 µM [inhibitor, single point] |  |
| NC(=O)c1ccc(-n2nnnc2SCC(=O)Nc2ccc(F)cc2)cc1 |  | inactive: -8.72% |
| COc1ccccc1C(C[N+](=O)[O-])c1c(N)n(C)c(=O)n(C)c1=O (configuration not stated) |  | inactive: -5.5% |
| CCc1ccc(C2C(C#N)=C(N)C(C#N)(C#N)C3=CCC(C(C)(C)C)CC32)cc1 (configuration not stated) | inconclusive: 15.8 µM [inhibitor, single point] |  |
| CCN(C(=O)c1cc2cc3ccc(OC)cc3nc2o1)c1cccc(C)c1 | inconclusive: 31.6 µM [inhibitor, partial curve] |  |
| O=S(=O)(NC1CC1)c1ccc(S(=O)(=O)N2CCCc3ccccc32)cc1 | inconclusive: 35.5 µM [inhibitor, partial curve] |  |
| COc1cc(-c2cccs2)cc(=O)c2c(C)oc(C)c12 | inconclusive: 22.4 µM [inhibitor, partial curve] |  |

| Structure (SMILES) | Potency | activity change, negative = displacement |
| --- | --- | --- |
| CCOC(=O)c1c(C)[nH]c(C)c1C(=O)CSc1nnc(-c2ccc(OC(F)F)cc2)o1 | inconclusive: 35.5 µM [inhibitor, partial curve] |  |
| Cc1ccc(C(=O)COC(=O)c2cc(Cl)nc3ccccc23)cc1 | inconclusive: 39.8 µM [inhibitor, single point] |  |
| COc1ccc(N/N=C(\C=N\O)C(=O)c2ccc(OC)cc2)cc1 | inconclusive: 15.8 µM [inhibitor, partial curve] |  |
| COc1ccc(-c2nc(C(=O)Nc3ccc(C(C)=O)cc3)nn2-c2cccc(Cl)c2)cc1 | inconclusive: 15.8 µM [inhibitor, partial curve] |  |
| O=C1CCSc2ccc(S(=O)(=O)Nc3ccc(Cl)c(C(F)(F)F)c3)cc2N1 | inconclusive: 14.1 µM [inhibitor, partial curve] |  |
| COc1cc(/C=C/C(=O)c2ccccc2O)cc(OC)c1OC | inconclusive: 39.8 µM [inhibitor, partial curve] |  |
| CCc1ccccc1NC(=O)C1CCN(S(=O)(=O)c2ccc3[nH]c(=O)ccc3c2)CC1 | inconclusive: 22.4 µM [inhibitor, single point] |  |
| COc1ccc(CC(=O)Nc2cc(Cl)ccc2O)cc1 | inconclusive: 28.2 µM [inhibitor, partial curve] |  |
| O=C(Cn1ncc2c3ccccc3n(Cc3ccccc3)c2c1=O)NCCN1CCOCC1 |  | inactive: -11.6% |
| COc1ccc(CNC(=O)c2nc(Cn3nc(C)c(Br)c3C)no2)cc1OC | inconclusive: 25.1 µM [inhibitor, partial curve] |  |
| COc1ccccc1OCCCOc1ccc([N+](=O)[O-])cc1Cl | inconclusive: 25.1 µM [inhibitor, partial curve] |  |
| CCOc1ccc(N/C(SCc2cccc([N+](=O)[O-])c2)=C(/C#N)C(N)=O)cc1 | inconclusive: 31.6 µM [inhibitor, single point] |  |
| Cc1ccc(NC(=O)Cn2c(=O)n(-c3ccccc3)c(=O)c3ccc(C(=O)NCc4ccc5c(c4)OCO5)cc32)c(C)c1 | inconclusive: 2.82 µM [inhibitor, full curve, poor fit] |  |
| c1ccc2c(CSCCc3ccncc3)cccc2c1 | inconclusive: 22.4 µM [inhibitor, partial curve] |  |
| CCN(CCCNC(=O)CCc1nc(-c2ccc(OC)cc2)no1)c1cccc(C)c1 | inconclusive: 35.5 µM [inhibitor, partial curve] |  |
| CS(=O)(=O)Nc1ccc(C(=O)Nc2ccc(S(=O)(=O)N3CCCC3)cc2)cc1 | inconclusive: 25.1 µM [inhibitor, partial curve] |  |
| CCOC(=O)c1cccc(NC(=O)c2ccc3nc(Cc4ccccc4)oc3c2)c1 |  | inactive: -9.84% |
| Cc1cccc(NS(=O)(=O)c2cccs2)c1 | inconclusive: 28.2 µM [inhibitor, partial curve] |  |
| Cc1ccc(CC(=O)Nc2cc(C)ccn2)cc1 | inconclusive: 31.6 µM [inhibitor, single point] |  |
| O=C(c1ccc(Cl)cc1)C1C2C(=O)N(c3ccccc3)C(=O)C2C2CCCN21 (configuration not stated) | inconclusive: 28.2 µM [inhibitor, partial curve] |  |
| COc1ccc(CN2CN(S(=O)(=O)c3cccs3)c3nc4ccccc4nc32)cc1 |  | inactive: 1.13% |
